Reference: PubChem BioAssay AID686978 (National Center for Advancing Translational Sciences (NCATS), 2013)
Several values for one entry are separate records, joined by “and”; a condition that tells them apart may be missing. Identical values can stand only once. Among all 420,000 compounds or so, about 64,000 (15%) were called active. The shares of active, inactive and inconclusive entries below differ from those in the screen. Calls follow the shape of the dose curve; as a rule, active = well fitted inhibition curve with a large enough effect; inconclusive = small, poorly fitted or top-dose-only effect; inactive = flat fitted curve, though single readings scatter. Potencies of inconclusive entries are doubtful fits and often do not repeat.

Assay: qHTS for Inhibitors of human tyrosyl-DNA phosphodiesterase 1 (TDP1): qHTS in cells in absence of CPT; also: nearly all actives have a fitted effect of over 55% in size
Conditions: DT40 Tdp1-/- hTDP1 cells, no CPT, ATP luminescence, 48 h; activity change, negative = growth inhibition: at 46.2 µM (top of the series) unless noted
How it was run: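 DT40 Tdp1-/-;hTDP1 cells, no CPT (DMSO vehicle only), 400 cells/well; compounds pin-transferred; ≥48 hr, 37 °C; CellTiter-Glo 30 min RT dark, luminescence read.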
% is scaled to controls: 0 for no effect and ±100 for the full control effect; potency is read from the fitted curve at half-maximal effect; tags tell the direction and shape of the fitted curve.

SMILES	activity change, negative = growth inhibition	Potency
CCN(CC)CCCNC(=O)Cn1cnc2sc(C)c(S(=O)(=O)N3CCN(c4ncccn4)CC3)c2c1=O	inactive: -1.58%	
Cc1nc(C(=O)Nc2cc(Cl)ccc2Cl)nn1-c1cc(OC(C)C)c(Cl)cc1Cl		active: 11.6 µM
O=C(NC1CCCCC1)C(C1CC1)n1c(=O)c(-c2cc3ccccc3[nH]2)nc2ccccc21 (stereo not drawn)		inconclusive: 20.6 µM [inhibitor, single point]
COC(=O)[C@H]1[C@H]2C[C@@H]3c4[nH]c5cc(OC)ccc5c4CCN3C[C@H]2C[C@@H](OC(=O)c2cc(OC)c(OC)c(OC)c2)[C@@H]1OC		inconclusive: 33.5 µM [inhibitor, single point] and inconclusive: 18.4 µM [inhibitor, single point]
Nc1ccc(O)c2c1C(=O)c1ccccc1C2=O		inconclusive: 29.1 µM [inhibitor, single point]
NC(=O)c1csc(C2OC(CO)C(O)C2O)n1 (stereo not drawn)		active: 0.0259 µM
Cc1ccc(N(C)C(=O)Cn2ncc3c([nH]c4ccccc43)c2=O)cc1C		inconclusive: 29.1 µM [inhibitor, single point]
COc1cc(/C=C/C(=O)Nc2cccc(S(=O)(=O)N3CCOCC3)c2)ccc1OCC#N		inconclusive: 20.6 µM [inhibitor, single point]
Cc1ccc(C2(C)NC(=O)N(CC(=O)Nc3ccc(-c4nc5ccc(C)cc5s4)cc3)C2=O)cc1 (stereo not drawn)		active: 10.3 µM
COc1ccc(OC)c(C2c3[nH]c4ccccc4c3C[C@H]3C(=O)N(CCCOC(C)C)CC(=O)N23)c1 (stereo partly drawn)		inconclusive: 29.1 µM [inhibitor, single point]
CCOC(=O)C1(C)CCCN1C(=O)c1cccs1 (stereo not drawn)	inactive: -11.4%	
CCOc1ccc(N(CC(=O)Nc2ccccc2OCC)S(=O)(=O)c2c(C)noc2C)cc1		active: 3.26 µM
Cc1ccc(Cl)cc1NC(=O)c1cnn2c1NC(c1ccco1)CC2C(F)(F)F (stereo not drawn)		inconclusive: 25.9 µM [inhibitor, single point]
COc1cccc2c1OC1(C)CC2NC(=O)N1c1cccc(C(=O)Nc2ccc3c(c2)OCCO3)c1 (stereo not drawn)		active: 18.4 µM
CCc1ccc(CNC(=O)c2ccc3c(c2)c(C)c(C)n3Cc2ccccc2)cc1		inconclusive: 16.4 µM [inhibitor, single point]
Cc1ccc(C(=O)NC(=S)Nc2ccccc2N2CCCC2)cc1[N+](=O)[O-]		active: 18.4 µM
C=CCN(c1ccccc1OC)S(=O)(=O)c1ccc(Cl)c(C(=O)NCc2ccco2)c1		active: 13 µM
COc1cccc2cc3c(=O)n(-c4ccccc4)nc-3oc12		inconclusive: 20.6 µM [inhibitor, partial curve]
COC(=O)c1sccc1NC(=O)Cc1ccc(OC)c(OC)c1	inactive: -5.47%	
O=S(=O)(Cc1ccccc1)CS(=O)(=O)Cc1ccccc1	inactive: -15.5%	
O=C(Cc1ccccc1)NS(=O)(=O)c1ccccc1	inactive: -12.6%	
COc1ccc(-c2ncccc2OC(=O)C23CC4CC(CC(C4)C2)C3)cc1OC		inconclusive: 14.6 µM [inhibitor, partial curve]

SMILES	activity change, negative = growth inhibition	Potency
CCOC(=O)c1c(NCc2ccc3c(c2)OCO3)c2ccccc2[nH]c1=O		inconclusive: 14.6 µM [inhibitor, single point]
O=C(CSc1nc2c([nH]c3ccccc32)c(=O)n1-c1ccccc1)Nc1cccc(C(F)(F)F)c1		active: 23.1 µM
COc1ccccc1N1CCN(C(=O)C(C)CS(=O)(=O)c2ccc3c(c2)NC(=O)CS3)CC1 (stereo not drawn)		inconclusive: 18.4 µM [inhibitor, single point]
CN(C(=O)c1ccccc1C(=O)OCC(=O)c1ccc(F)c(F)c1)C1CCCCC1		active: 25.9 µM
CC(=O)c1ccc(-c2ccc(/C=C(/Sc3n[nH]c(C)n3)C(=O)O)o2)cc1	inactive: -13.2%	
Cc1ccc(N2C(=O)N3[C@@H]4c5ccccc5OC[C@@H]4[C@@H](c4ccccc4)[C@@]3(C)C2=O)cc1		inconclusive: 25.9 µM [inhibitor, single point]
CC1(Cc2ccccc2Cl)C(=O)Nc2cc(-c3ccccc3Cl)ccc21 (stereo not drawn)		inconclusive: 29.1 µM [inhibitor, single point]
CCOC(=O)N1CCc2c(sc(NCc3cc(OC)ccc3OC)c2C(=O)Nc2cc(OC)ccc2OC)C1		inconclusive: 23.1 µM [inhibitor, partial curve]
CCOC(=O)C1CCN(C(=O)C(CCSC)NC(=O)c2ccccc2OC)CC1 (stereo not drawn)		inconclusive: 18.4 µM [inhibitor, single point]
CCC(C)NC(=O)Cn1c(=O)n(CCCCC(=O)NCc2ccco2)c(=O)c2ccccc21 (stereo not drawn)	inactive: -19.6%	
Oc1ccc(Br)cc1C1Nc2ccccc2S1 (stereo not drawn)	inactive: -26.9%	
Cc1nc(C(F)(F)F)ccc1C(=O)N1CCCCC1	inactive: -1.69%	
Cc1ccc(Nc2nc(NCc3ccco3)nc3nccnc23)c(C)c1		inconclusive: 22.4 µM [inhibitor, single point]
CCn1c2ccccc2c2cc(NC(=O)CSc3nccc(=O)[nH]3)ccc21		inconclusive: 23.1 µM [inhibitor, single point]
COC(=O)[C@@]12C[C@@H](CC(=O)NCC34CC5CC(CC(C5)C3)C4)C(=O)N(Cc3ccccc3)C1=CCC(C)(C)C2		active: 20.6 µM
CCN(CC)CCNc1oc(-c2ccccc2)nc1S(=O)(=O)c1ccccc1		inconclusive: 23.1 µM [inhibitor, single point]
CNC(=O)C(=O)Nc1cc2c3c(c1)C(C)C(=O)N3CCC2 (stereo not drawn)	inactive: 0.809%	
O=C(/C=C/c1ccco1)Nc1ccc(-c2nc3ccccc3[nH]2)cc1		inconclusive: 20.6 µM [inhibitor, single point]
Cc1ccc(S(=O)(=O)NCC(=O)N(CC(=O)NCc2ccco2)Cc2ccccc2)cc1	inactive: -3.72%	
CCN1C(=O)[C@@H]2[C@@H](c3ccc(-c4ccc(C(C)=O)cc4)cc3)N3CCCC[C@@]3(C(=O)OC)[C@@H]2C1=O		active: 18.4 µM
N#CCc1ccc(OC(=O)c2cccnc2)cc1		inconclusive: 6.51 µM [inhibitor, single point]
